Measurements taken from PubChem BioAssay AID463173 (ICCB-Longwood Screening Facility, Harvard Medical School, 2010).
The campaign covered roughly 52,000 compounds. About 1,700 (3.3%) were called active. Rule as the data show it: active = survival mostly below about 52% (no sharp cut-off); inactive = mostly above about 56%. This is one part of the list.

tested on: Wild type; test: growth inhibition of S. aureus wild type versus tarO mutant, primary screen, teichoic acid synthesis inhibitors, RN4220, OD600 (AID 463173); conditions: S. aureus RN4220 wild type/DeltatarO growth, OD600, 18 h, stronger effect = lower value, screened at 18.75 µg/mL (by protocol)

SMILES	survival
Cc1c(C(=O)N(Cc2cccc(Cl)c2)Cc2ccco2)oc2ccccc12	inactive: 72%
C=CCN(C)NC(=S)Nc1ccccc1	inactive: 103%
COc1ccc(C)cc1NS(=O)(=O)c1cc(Br)cc2c1N(C(C)=O)C(C)C2 (configuration not stated)	inactive: 73%
CCOc1ccc(S(=O)(=O)NCc2cccn2Cc2cccc(C)c2)cc1	inactive: 71%
CC(C)COc1ccc(C(=O)N(Cc2cccc(F)c2)C2CCS(=O)(=O)C2)cc1 (configuration not stated)	inactive: 83%
CCOC(=O)c1cnc2ccc(OCC)cc2c1NCCc1ccc(OC)c(OC)c1	inactive: 133%
CCOC(=O)c1cc(-c2ccccc2)n(-c2cccc(C(=O)NC(C)(C)C)c2)c1C	inactive: 118%
CCCn1c(=N)c(C(=O)NC2CCCCC2)cc2c(=O)n3cc(C)ccc3nc21	inactive: 70%
Cc1ccc(C)c(N2CCN(C(c3ccccc3)c3nnc(-c4ccccc4)o3)CC2)c1 (configuration not stated)	active: 1%
CCCn1c2ccccc2c2cnn(CC(=O)NCCCOC(C)C)c(=O)c21	active: -6%
CCN1CCc2c(sc(-n3cccc3)c2C(CCC(C)C)NC(=O)NCCC(=O)OC)C1 (configuration not stated)	inactive: 73%
CCc1cccc(C)c1NC(=O)C(NS(=O)(=O)c1ccc2c(c1)CCC(=O)N2)c1ccccc1 (configuration not stated)	inactive: 77%
COc1ccc(CN(Cc2ccco2)S(=O)(=O)c2ccc(S(=O)(=O)N3CCCC3)cc2)cc1	inactive: 111%
Cc1ccc(NS(=O)(=O)c2c(C)nc3sc(C)c(C)n3c2=O)cc1F	inactive: 91%
O=C(CSc1nc2ccsc2c(=O)n1-c1ccc(Br)cc1)NCc1ccc(Cl)cc1	inactive: 81%
O=C(NCCCN1CCOCC1)C1CC(c2ccccc2O)=NO1 (configuration not stated)	inactive: 125%
COc1ccc(CCNC(=O)Cc2ccc(NC(=O)N3CCSc4ncccc43)cc2)cc1OC	inactive: 69%
Cc1cccc(NC(=O)c2cc3c([nH]c2=O)CC(c2ccccc2)CC3=O)c1 (configuration not stated)	active: -3%
COc1cccc(-c2nc(CS(=O)(=O)CC(=O)Nc3ccc(C)c(Cl)c3)c(C)o2)c1	inactive: 126%
COc1cccc(CNC(=O)Cn2cccc2C(=O)c2ccccc2)c1	inactive: 89%
COc1ccc(C(=O)N2CCN(c3nc4c(OC)cccc4s3)CC2)cc1OC	inactive: 64%
O=C(Cn1c(=O)n(Cc2ccc(F)cc2)c(=O)c2sc3ccccc3c21)Nc1ccc(F)cc1F	inactive: 80%
COc1cc(C(=O)NCc2nc(-c3ccc(Cl)cc3)no2)cc(OC)c1OC	inactive: 86%

SMILES	survival
COC(=O)CCNC(=O)N1CCN(c2nnc(C)c3c(C)n(-c4ccccc4)nc23)CC1	inactive: 78%
COc1ccc(OC)c(-n2c(-c3cc(-c4ccco4)[nH]n3)n[nH]c2=S)c1	inactive: 107%
CCOc1ccc(NC(=O)C2CC(=O)NC(N3CCCCC3)=N2)cc1 (configuration not stated)	inactive: 100%
CCc1ccc(CNC(=O)C2COc3ccccc3C2)cc1 (configuration not stated)	inactive: 88%
Cc1cccc(CN2C(=O)c3ccccc3S(=O)(=O)c3ccc(C(=O)OCC4CCCO4)cc32)c1 (configuration not stated)	inactive: 72%
CCOc1ccc(C2CC(=O)Nc3c2c(=O)[nH]c2ncnn32)cc1 (configuration not stated)	inactive: 68%
CCn1c(CNC(=O)c2ccc(OC)cc2)nnc1SCC(=O)Nc1ccc(F)cc1	inactive: 120%
CCc1ccc(C(=O)c2cn(CC(=O)Nc3ccc(F)cc3)c3ccc(F)cc3c2=O)cc1	inactive: 70%
Cc1cccc(C(=O)Nc2cc(-c3ccccc3F)nn2-c2ccccc2)c1	inactive: 59%
CCOC(=O)c1cc(S(=O)(=O)N2CCN(c3ccccc3OC)CC2)[nH]n1	inactive: 124%
Cc1ccc(N2CC(NC(=O)C3CCCCC3)CC2=O)cc1 (configuration not stated)	inactive: 73%
O=C(NCc1ccco1)c1c2c(nc3ccccc13)-c1ccccc1CC2	inactive: 121%
COc1ccc(NC(=O)CSCc2cc(=O)c3cc(Cl)ccc3[nH]2)cc1	inactive: 73%
CCCC1(C)NC(=O)c2ccccc2O1 (configuration not stated)	inactive: 108%
COc1ccc(-c2cc(C(=O)Nc3c(C)nn(Cc4ccccc4C)c3C)no2)cc1	inactive: 87%
COc1cc(NS(=O)(=O)c2cc3[nH]c(=O)[nH]c3cc2C)cc(OC)c1OC	inactive: 32%
Cc1ccc2onc(CNC(=O)N3CCN(c4cc(Cl)ccc4C)CC3)c2c1	inactive: 61%
CC(CNC(=O)c1cc2cc(S(=O)(=O)N3CCCCC3)ccc2n1C)c1ccccc1 (configuration not stated)	inactive: 55%
Cc1ccc(CCNC(=O)c2sc3nc4n(c(=O)c3c2C)CCCC4)cc1	inactive: 87%
COc1ccccc1CNC(=O)c1ccc2c(c1)nc(C)n2-c1cccc(C)c1	inactive: 88%
O=C1CCC(=O)N1CN1CCN(c2ccccc2)CC1	inactive: 113%
Cc1ccc2c(c1)-c1c(cnc3cc(-c4ccc(Cl)cc4)nn13)CO2	inactive: 61%
COc1ccc(NC(=O)C(C)N2Cc3ccccc3C2=O)cc1OC (configuration not stated)	inactive: 75%

SMILES	survival
COc1ccc(C(C)=O)cc1CSc1nc(NCc2ccccc2)c2ccccc2n1	inactive: 85%
Cc1cccc(OCC(=O)Nc2ccc(NC(=O)c3ccco3)cc2)c1	inactive: 112%
Cc1ccc2c(c1)c(=O)c1ccccc1n2CCCC(=O)Nc1ccc(C)c(C)c1	inactive: 81%
CC(C)CC(=O)n1nc(-c2ccco2)nc1NCc1ccc(Cl)cc1	inactive: 83%
CC1CCCCN1C(=O)CSc1nnc(CNc2ccc(Cl)cc2)o1 (configuration not stated)	inactive: 101%
CC(C)OC(=O)c1ccc(NC(=O)CSc2nc(-c3cccs3)cc(C(F)(F)F)n2)cc1	inactive: 75%
Cc1ccc(COC(=O)c2[nH]c3c(c2C)C(=O)CC(c2ccc(Cl)cc2)C3)cc1 (configuration not stated)	inactive: 84%
COc1ccc(Cn2c(C(=O)O)c(CNCc3ccc(C)o3)c3ccc(OC)cc32)cc1	inactive: 79%
N=C(N)N=Nc1ccc(O)cc1	inactive: 104%
CCOc1ccc(NC(=O)c2ccc3nc(C(C)C)oc3c2)cc1	inactive: 70%
COc1ccccc1OC(C)C(=O)N1CCC(c2nc3ccccc3s2)CC1 (configuration not stated)	active: -2%
COc1ccc(Cn2c(=O)c3ccccc3n3c(-c4ccc(C)cc4)nnc23)cc1	inactive: 89%
CCc1cccc(NC(=O)Cn2nc(C)c3sc4ccccc4c3c2=O)c1	inactive: 82%
COc1ccc(NC(=O)c2cnc3sc(N4CCOCC4)nn3c2=O)c(OC)c1	inactive: 66%
Cc1ccc(OCc2cc(=O)n3cc(C)sc3n2)c(NC(=O)c2ccco2)c1	inactive: 88%
COc1cc(C(=O)Nc2c(C(=O)Nc3ccccc3F)oc3ccccc23)cc(OC)c1OC	inactive: 68%
O=C(O)c1cc(N2C(=O)C3CC=CCC3C2=O)ccc1NCc1cccnc1 (configuration not stated)	inactive: 115%
Cc1ccc(C)c(NC(=O)Cn2cc(S(=O)(=O)NC(C)C)c(S(=O)(=O)NC(C)C)c2)c1	inactive: 80%
O=C(Nc1cccc(NC(=O)c2ccc(Br)cc2)c1)c1ccccc1	inactive: 91%
CCCn1c(NCc2ccccc2F)nc2ccccc21	inactive: 89%
CCC(=O)N1c2ccc(S(=O)(=O)CCC(=O)N3CCN(c4ccc(F)cc4)CC3)cc2CC1C (configuration not stated)	inactive: 79%
COc1ccc2c(c1)CC(NC(=O)Nc1ccc(Br)c(C)c1)CO2 (configuration not stated)	inactive: 59%
COC(=O)COc1ccc(S(=O)(=O)N2CCC(C)CC2)cc1	inactive: 102%

SMILES	survival
CCOC(=O)c1cc2c(=O)n3ccccc3nc2n(CC2CCCO2)c1=NC(=O)c1ccc(F)cc1 (configuration not stated)	inactive: 66%
N#CC1=C(N)NC(SCC(=O)Nc2ccc(Br)cc2)=C(C#N)C12CCCCC2	inactive: 72%
O=C(NCc1cccc(F)c1)c1ccc2nc(CCc3ccccc3)oc2c1	inactive: 71%
COc1ccc(-c2nnc(SCC(=O)Oc3cc(C)ccc3C)o2)cc1	inactive: 86%
Cc1ccc(-c2nc(Cn3c(SCc4ccc(F)cc4)nc4cccnc43)c(C)o2)cc1	inactive: 77%
COc1ccc(C(=O)Nc2nonc2-c2ccc(OC)c(OC)c2)cc1Cl	inactive: 91%
CCCCCNC(=O)c1ccc2c(=O)n(CCc3ccccc3)c(=O)[nH]c2c1	inactive: 72%
CCOC(=O)N1CCc2c(sc(NCc3cccc(F)c3)c2C(=O)Nc2ccc(OCC)cc2)C1	inactive: 73%
CCN(C(=O)c1cccn(Cc2cccc(Cl)c2)c1=O)c1ccccc1	inactive: 77%
COc1ccc(CNc2ncnc3c2c(-c2ccccc2)cn3-c2cccc(C)c2)cc1	inactive: 74%
O=C(Nc1ccc2ccccc2c1)C1CC(=O)N(C2CCCCC2)C1 (configuration not stated)	inactive: 116%
CC(=O)c1ccc(S(=O)(=O)N2CCn3cccc3C2c2ccc(F)c(F)c2)cc1 (configuration not stated)	inactive: 68%
CCc1cc(C(=O)NCc2ccc(F)cc2)no1	inactive: 82%
Nc1nc(CSc2ccccn2)nc(Nc2ccccc2)n1	inactive: 113%
Cc1ccc(N2CC(NC(=O)C3CCCC3)CC2=O)cc1C (configuration not stated)	inactive: 101%
CC(C)Oc1ccc(CNC(=O)c2ccc3c(c2)N(C)C(=O)C2CCCCN32)cc1 (configuration not stated)	active: 10%
Cc1cc(=O)c2c(o1)CC(C)(C)CC2=O	inactive: 110%
CCN1CCN(c2cc(C)c3cc(NC(=O)/C=C/c4ccc(OCCC(C)C)cc4)ccc3n2)CC1	inactive: 118%
O=C(COc1ccccc1Cl)Nc1nc(-c2ccc(F)cc2)ns1	inactive: 68%
CCO/C(C)=N\Oc1nc2nonc2nc1O/N=C(/C)OCC	inactive: 109%
COc1cccc(NC(=O)C2CCN(S(=O)(=O)c3c(C)noc3/C=C/c3cccs3)CC2)c1	inactive: 84%
C#CCNc1ccccc1	inactive: 109%
Cc1ccc(NC(=O)CSc2nc(C3CCCC3)nc3c2c(=O)n(C)c(=O)n3C)c(C)c1	inactive: 75%
